# Test results: PubChem BioAssay AID1345083 (National Center for Advancing Translational Sciences (NCATS), 2018)
# Among all 94,000 compounds or so, about 6,200 (6.6%) were called active. The shares of active, inactive and inconclusive entries below differ from those in the screen. The call rests on the fitted dose curve; in most records, active means well fitted inhibition curve with a large enough effect; inconclusive means small, poorly fitted or top-dose-only effect; inactive means flat fitted curve, though single readings scatter. A potency beside an inconclusive call is a rough fit, not a confirmed value.
# Experiment: Cytotoxic Profiling in HEK 293 Cell Line of Diverse Libraries Using Quantitative High-Throughput Screening; further: nearly all actives have a fitted effect of over 60% in size
# Conditions: HEK 293 viability, ATP luminescence (CellTiter-Glo), 48-72 h; activity change, negative = cytotoxicity: at 115 µM (top of the series) unless noted; series mostly up to 115 µM
# Summary of the method: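 ATP-coupled CellTiter-Glo luminescence served as viability read-out, recorded 10 min after reagent addition at room temperature. HEK 293 cells, 250 cells/well, had been incubated with pintool-transferred compound for 48 or 72 hr at 37 degree Celsius.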
# On the % scale 0 is the no-effect control and ±100 the full control effect; potency means the concentration at half of the fitted maximal effect; tags describe the fitted curve by direction and shape.
SMILES,Potency,"activity change, negative = cytotoxicity",outcome
CC(C)C[C@@H]1N[C@H](C(=O)O)Cc2cn(CC3CC3)c3cccc1c23,"inconclusive: 100 µM [inhibitor, partial curve, poor fit]",–,–
Cc1nc(N2CCC(C(=O)NCc3cccc(Cl)c3)CC2)cc(C(F)(F)F)n1,"inconclusive: 31.6 µM [inhibitor, partial curve, poor fit]",–,–
Cn1nccc1C(=O)N1CCCC(c2noc(COc3ccccc3F)n2)C1 (stereo unspecified),–,inactive: -13.4%,–
CC(C)CCN1CCc2c(sc3ncnc(N4CCN(C)CC4)c23)C1,"inconclusive: 50.1 µM [inhibitor, partial curve, poor fit]",–,–
CC(C)(C)CC(=O)N1C[C@@H](CO)[C@@H]2Oc3ccc(Cl)cc3[C@@H]21,"inconclusive: 79.4 µM [inhibitor, partial curve, poor fit]",–,–
Cc1cccc(CNC(=O)c2c(C)noc2-c2cccs2)c1,"inconclusive: 56.2 µM [inhibitor, partial curve, poor fit]",–,–
Cn1ccc2c(C(=O)NCCc3cnc[nH]3)nc(-c3ccc(N4CCOCC4)cc3)cc21,"inconclusive: 100 µM [inhibitor, partial curve]",–,–
O=C(c1cccnc1OC1CCN(S(=O)(=O)c2ccccc2)C1)N1CCCCC1 (stereo unspecified),–,inactive: -5.08%,–
O=C(c1cccs1)C1CCCN(Cc2nc(CCc3ccccc3)no2)C1 (stereo unspecified),"inconclusive: 31.6 µM [inhibitor, full curve]",–,–
Cc1cccc(NC(=O)CN2C(=O)NC(c3ccccc3Cl)C3=C2COC3=O)c1C (stereo unspecified),"inconclusive: 44.7 µM [inhibitor, partial curve, poor fit]",–,–
COc1cc(OC)cc(C(=O)NC2CCN(c3cc(-c4ccc(F)cc4)[nH]n3)CC2)c1,"inconclusive: 50.1 µM [inhibitor, partial curve, poor fit]",–,–
Cc1cc(CN2CCCC(CCNC(=O)C3(N)CC3)C2)oc1C (stereo unspecified),–,inactive: -8.58%,–
Cc1ccccc1CN1CCC2OCCN(CCc3ccccc3)C(=O)C2C1 (stereo unspecified),"inconclusive: 89.1 µM [inhibitor, partial curve, poor fit]",–,–
O=C(NCc1cccs1)c1ccc2c(c1)N(C(=O)c1ccc(F)cc1)CC2,"inconclusive: 50.1 µM [inhibitor, partial curve, poor fit]",–,–
OC1(CN2CCC(CCn3cccn3)CC2)CNCCOC1 (stereo unspecified),–,inactive: -5.79%,–
COc1ccccc1NC(=O)Cn1c(N2CCc3ccccc3C2)nc(C)cc1=O,"inconclusive: 50.1 µM [inhibitor, partial curve, poor fit]",–,–
FC(F)(F)c1ccc(CN2CCn3c(nnc3-c3ccncc3)C2)cc1,–,inactive: -26.3%,–
CCc1nc2c(c(-c3ccc(Cl)cc3)n1)CN(Cc1cccc(F)c1)CC2,active: 20 µM,–,–
Cc1noc(-c2ccn3c(CNC(=O)c4ccc(N(C)C)cc4)nnc3c2)n1,"inconclusive: 5.62 µM [inhibitor, full curve, poor fit]",–,–
CC[C@@]1(C(=O)O)C[C@H](C(=O)NCCOC)[C@H](c2ccc(OC)cc2)N1C,–,–,inactive
Cc1noc(C)c1C(=O)N1CC(N2C(=O)c3c(c(C)nn3-c3ccccc3)C2C(C)C)C1 (stereo unspecified),–,inactive: -7.67%,–
Cn1cc(CN2CCOC[C@H]2c2ncc(-c3ccc(S(C)(=O)=O)cc3)[nH]2)c2ccccc21,active: 20 µM,–,–

SMILES,Potency,"activity change, negative = cytotoxicity",outcome
CN(C)c1nc(-c2ccncc2)nc2c1CCN(C(=O)c1[nH]ncc1Cl)C2,"inconclusive: 89.1 µM [inhibitor, single point]",–,–
Cc1ccc(NC(=O)N2CCCC(Cn3cnc4cccnc43)C2)cc1 (stereo unspecified),–,inactive: -10.7%,–
O=C(c1ccc(CCC2COc3ccccc3O2)cc1)N1CCCCC1 (stereo unspecified),"inconclusive: 50.1 µM [inhibitor, partial curve, poor fit]",–,–
CC(C)CNC1(Cc2cc(-c3ccc(F)cc3)on2)COC1,"inconclusive: 100 µM [inhibitor, partial curve]",–,–
Cc1noc2c(N3CC(O)C3)cc(-c3cccc(C(F)(F)F)c3)nc12,"inconclusive: 63.1 µM [inhibitor, full curve]",–,–
NCC(=O)NC1CC2(CCN(C(=O)Cc3ccc(O)cc3)CC2)c2ccccc21 (stereo unspecified),–,–,inactive
COc1cc(-c2ccnc3nc(-c4cccs4)nn23)cc(OC)c1OC,"inconclusive: 50.1 µM [inhibitor, partial curve, poor fit]",–,–
NCc1ccccc1-c1ccsc1,–,inactive: 0.419% [at 172 µM],–
Nc1ccccc1CN1CCCC2(Cc3ccccc3CNC2=O)C1 (stereo unspecified),"inconclusive: 28.2 µM [inhibitor, full curve, poor fit]",–,–
O=C1NCc2ccccc2CC12CCCN(Cc1cccc(OC(F)(F)F)c1)C2 (stereo unspecified),"inconclusive: 50.1 µM [inhibitor, partial curve, poor fit]",–,–
O=C(NC1CCCN(c2cc(-c3ccccc3)[nH]n2)C1)c1cccc(F)c1 (stereo unspecified),active: 25.1 µM,–,–
COCCNC(=O)C[C@@H]1C[C@H]2O[C@H](CNC(=O)Nc3ccc(F)cc3)[C@@H](O)[C@H]2O1,–,inactive: -5.46% [at 172 µM],–
CC1=NS(=O)(=O)N(C)C=C1C(=O)O,–,inactive: -3.76%,–
CN(C)CC1(O)CCC2(CCN(C(=O)CCC3CCCC3)CC2)CC1,"inconclusive: 56.2 µM [inhibitor, partial curve, poor fit]",–,–
O=C(C1CC=CC1)N1CCN(C(=O)N2CC3CC(C2)[C@H]2CCCC(=O)N2C3)CC1 (stereo partly specified),–,inactive: 0.745%,–
COCC1CCN(C(=O)C2CCCN(S(=O)(=O)c3cn(C)cn3)CCC(=O)NCC2)CC1 (stereo unspecified),–,inactive: 1.15%,–
O=C(CC1CCCN(c2cnn(CC3CC3)c(=O)c2)C1)Nc1cccc(F)c1 (stereo unspecified),"inconclusive: 79.4 µM [inhibitor, partial curve, poor fit]",–,–
CCCN1CCCCC12Cc1ccccc1CN(C(=O)c1c(C)noc1C)C2 (stereo unspecified),"inconclusive: 44.7 µM [inhibitor, partial curve, poor fit]",–,–
O=C(NCCc1ccc(F)cc1)c1nc2cccnc2n(C2CC2)c1=O,–,–,inactive
O=C(c1ccc(F)cc1)N1CC(=O)N(C2CCC2)CC(O)C1 (stereo unspecified),–,inactive: -12.7%,–
CC(C)c1cccc(NC(=O)CN2C(=O)C(c3ccccc3)=NC23CCCC3)c1,active: 35.5 µM,–,–
O=C1N(C2CCCCC2)C[C@H]2CN(Cc3ccc(F)cc3)CCN12,"inconclusive: 89.1 µM [inhibitor, partial curve]",–,–

SMILES,Potency,"activity change, negative = cytotoxicity",outcome
CC(C)c1ccc(CNC(=O)c2cc3n(n2)CC(c2ccc4c(c2)OCO4)OC3)cc1 (stereo unspecified),active: 39.8 µM,–,–
CC(C)C[C@@H]1N[C@H](C(=O)NCCN(C)C)Cc2cn(Cc3ccccn3)c3cccc1c23,"inconclusive: 56.2 µM [inhibitor, full curve, poor fit]",–,–
CCc1cccc(NC(=O)N2CCCC2c2nncn2C2CCCC2)c1 (stereo unspecified),–,inactive: 12.1%,–
COCCN1CC(CO)C2(CCN(Cc3ccc(C#N)cc3)CC2)C1 (stereo unspecified),"inconclusive: 44.7 µM [inhibitor, partial curve, poor fit]",–,–
COc1ccc(-c2cc(N3CCCC(NC(=O)c4nccc5ccccc45)C3)n[nH]2)cc1 (stereo unspecified),"inconclusive: 50.1 µM [inhibitor, partial curve, poor fit]",–,–
Cc1cccc(C(=O)N2C[C@@H](Oc3ccccc3)C[C@@H]2C(=O)N2CCOCC2)c1,"inconclusive: 79.4 µM [inhibitor, partial curve]",–,–
COc1ccc2nc([C@H]3CCN(C4CCN(C(C)=O)CC4)C3)[nH]c2c1,–,inactive: -16% [at 172 µM],–
O=C(c1ccc(Cl)cc1)N1CC2(CCN(C3CCCCC3)CC2)Cc2ccccc21,"inconclusive: 50.1 µM [inhibitor, partial curve, poor fit]",–,–
COc1ccccc1CCC(=O)Nc1cccn2nc(C(C)C)nc12,"inconclusive: 44.7 µM [inhibitor, partial curve, poor fit]",–,–
O=C(Nc1cccc(C(F)(F)F)c1)[C@@H]1CCCN1c1ccnc2ccnn12,"inconclusive: 50.1 µM [inhibitor, partial curve]",–,–
CC(=O)N1CC2(Cc3ccccc31)CN(C(=O)Nc1ccccc1)C2,–,inactive: -20.7% [at 172 µM],–
O=C(c1ccccc1Cl)N1CCCC(C(=O)N2CCC(c3nc4ncccc4[nH]3)CC2)C1 (stereo unspecified),–,inactive: 3.3%,–
CCNC(=O)c1coc(COc2ccc3c(c2)C(c2cccc(C)c2)N(C(=O)C2CC2)CC3)n1 (stereo unspecified),"inconclusive: 22.4 µM [inhibitor, partial curve, poor fit]",–,–
COc1ccc(CNC(=O)C2CCCN2c2nccc(Nc3ccc(C)cc3)n2)cc1 (stereo unspecified),"inconclusive: 11.2 µM [inhibitor, full curve, poor fit]",–,–
CN(C)S(=O)(=O)N1CCOC(c2ccc(Cl)c(Cl)c2)C1 (stereo unspecified),"inconclusive: 31.6 µM [inhibitor, partial curve, poor fit]",–,–
CCCCCN(CCC(=O)NCc1ccc2c(c1)OCO2)C(=O)c1cc(C)oc1C,"inconclusive: 20 µM [inhibitor, full curve, poor fit]",–,–
Cc1ccc(-c2nc(C3CC(=O)N(c4ccc(Cl)cc4)C3)no2)cc1 (stereo unspecified),"inconclusive: 56.2 µM [inhibitor, partial curve, poor fit]",–,–
CC(=O)Nc1cccc(-c2nccc3c(=O)cc(-c4ccncc4)oc23)c1,–,–,inactive [at 172 µM]
CCn1c2c(c(=O)n1Cc1ccccc1)CCN(C(=O)c1ccc(Oc3ccccc3)cc1)C2,"inconclusive: 44.7 µM [inhibitor, partial curve, poor fit]",–,–
CCC1CCCCN1CCNC(=O)c1cc2c(s1)CN(C1CCCC1)C2 (stereo unspecified),"inconclusive: 89.1 µM [inhibitor, single point]",–,–
O=S(=O)(c1cccnc1)N1CCc2onc(-c3cccc4ccccc34)c2C1,"inconclusive: 89.1 µM [inhibitor, single point]",–,–
COc1ccc(-c2[nH]nc3ncc(-c4ccc(OC)nc4)nc23)c(C)c1,active: 22.4 µM,–,–
